This is one part of the list. At the low end of the ranking the order means little.

In this experiment the target is SIX1 homeodomain (reference allele) (UniProt Q15475). Nature of the experiment: universal protein binding microarray. The note with it: Universal all-10-mer PBM (8x60K, AMADID 030236), 300 nM GST-tagged protein, Alexa Fluor 488 anti-GST; buffer, salt, pH and temperature not stated; high values mean tight binding; most listed sequences are background and not binding sites; double strand, one strand shown.
For the sequence ATATCCGG, the binding signal was found to be 0.421 E-score. The same measure for AGCGGCGG: -0.158 E-score. The figure for ACCGTTTG is -0.0542 E-score. The same measure for ATTTCGTG: -0.0899 E-score; for CCTTCGGA: 0.138 E-score; for GCGGATAC: 0.43 E-score.

On to ATTCGTTA, for which the binding signal was -0.00264 E-score. ACGATGCG: the binding signal was -0.0412 E-score. The figure for CTGCATGA is -0.0354 E-score. The same measure for GTGATAAA: -0.156 E-score. The figure for AGCCGACT is 0.023 E-score. As to CTTTTGAC, the binding signal was -0.253 E-score. The figure for AAGTTAGT is -0.279 E-score; for AGTGGAGG it is -0.0179 E-score. The same measure for AAACCCTC: -0.162 E-score; for CAATACAG: 0.0858 E-score. On to AACGAGCT, for which the binding signal is -0.00337 E-score.

GTGTTAGA: the binding signal was 0.214 E-score.

For the sequence AAACCAGT, the binding signal is -0.0512 E-score. The figure for CTCGACAC is 0.129 E-score. The figure for ACAGGTAG is 0.0291 E-score; for AACGGACC it is -0.111 E-score; for AGAAACCG it is 0.0115 E-score. The figure for CATCAGAA is -0.179 E-score; for AACAAAGC it is -0.266 E-score.

For TAGTGACA, the binding signal was 0.0797 E-score. As for AGTCATTG, the binding signal is -0.177 E-score. CAGTGAGA: the binding signal worked out at 0.16 E-score. Consider ACTTGGAA, for which the binding signal was -0.0387 E-score. As for AGTGCTAA, the binding signal is -0.17 E-score. With AGTAACTA, the binding signal is -0.176 E-score.

With ATGAGCTA, the binding signal is -0.0189 E-score. For GCTGAAAC, the binding signal is -0.194 E-score. Consider GATCTTGA, for which the binding signal is 0.269 E-score. The same measure for AGAATAGG: 0.0562 E-score. ATTGGTTG: the binding signal was -0.0105 E-score.

Regarding CAACCCAG, the binding signal is -0.0276 E-score. Regarding CCGGCTTA, the binding signal came to 0.131 E-score.

For the sequence AAATAGCT, the binding signal was -0.239 E-score. The same measure for GGTGATAC: 0.486 E-score; for CTGCGCTC: -0.193 E-score. The figure for AGTGCCGC is -0.184 E-score; for CCACTTGA it is 0.0687 E-score; for ATCGATTG it is 0.0667 E-score.

With AACGCGAA, the binding signal was -0.146 E-score.

Turning to CGTATAGC, the binding signal turned out to be 0.185 E-score. As for CAGTTTTA, the binding signal was -0.101 E-score. For the sequence CTTATGCC, the binding signal worked out at 0.0583 E-score. The same measure for TGCTCCCA: 0.0634 E-score; for AGTTGTAT: 0.215 E-score; for CCTTGCTC: 0.0514 E-score. The figure for AGCACTAC is -0.0916 E-score; for CCGCTCAC it is -0.0754 E-score; for GAAAAGGA it is -0.253 E-score.

AAGAGTCG: the binding signal was -0.181 E-score.

ACACTGGC: the binding signal worked out at 0.0449 E-score. As to CCTACGCG, the binding signal was determined as 0.0131 E-score.

Consider CGAATAAG, for which the binding signal is -0.13 E-score.

As to ATTTGATC, the binding signal came out at 0.215 E-score. The figure for ATCAGCTA is 0.192 E-score. As for CCGTAATC, the binding signal turned out to be 0.169 E-score. As to CCAATAGA, the binding signal is -0.0187 E-score. The figure for ACACAAGC is -0.189 E-score; for ACTGGCCC it is 0.00931 E-score. The same measure for AAACGAGA: -0.00747 E-score. The figure for GTAAAAGA is -0.272 E-score; for CGCGTACA it is -0.0236 E-score; for AGCAGCAC it is -0.338 E-score.

For the sequence AAGACCGA, the binding signal is -0.0751 E-score. The figure for CCTGAGAC is 0.168 E-score; for TGGGCCAA it is -0.236 E-score.

Regarding GCCAAAAC, the binding signal was -0.157 E-score. The figure for ATGAAGCC is -0.0431 E-score; for TGAAAGAA it is -0.198 E-score.

As to AACGTACC, the binding signal was -0.0776 E-score.

As to GCCCATGA, the binding signal is -0.055 E-score.

Regarding ATCCGCAG, the binding signal was 0.312 E-score. As to AAGACGGC, the binding signal is -0.0691 E-score. Turning to CAGGACGA, the binding signal is -0.109 E-score. The figure for AGTCTCCC is -0.146 E-score. For CACAACAA, the binding signal was -0.119 E-score. On to AAAAGAGT, for which the binding signal is -0.196 E-score. For GCCCCTAA, the binding signal is -0.12 E-score. The same measure for GGAGAGTA: 0.0867 E-score; for ATGCACTC: -0.0805 E-score; for CTTGCTGA: -0.0978 E-score. AATCTGCC: the binding signal stood at 0.0516 E-score. The same measure for ACGTAAAC: -0.207 E-score. As to GCTTCCAC, the binding signal is -0.297 E-score. The same measure for CGGCATAG: 0.0273 E-score; for CAAGCGAC: -0.251 E-score. The figure for CGAATCCA is 0.165 E-score; for CAGCAGGA it is 0.0321 E-score. The figure for AGCATGTC is -0.236 E-score; for AAGCTCCT it is -0.193 E-score. On to GCCACGCC, for which the binding signal is -0.27 E-score. Turning to AGCACTTA, the binding signal was -0.212 E-score.

Consider ATATACCG, for which the binding signal is 0.393 E-score. AGCCGCCT: the binding signal is 0.0811 E-score. The figure for GTGGCTTA is -0.217 E-score; for AGTTCTGC it is -0.268 E-score; for AGGCACCT it is -0.157 E-score. The same measure for ATCCTAGC: 0.165 E-score; for AACTACCA: -0.186 E-score.

Turning to CAGAAGGC, the binding signal was -0.151 E-score. Regarding ATCCGATG, the binding signal came out at 0.253 E-score.

For the sequence CACAGGCG, the binding signal turned out to be 0.0281 E-score.

Take CCAGGCTA: the binding signal was 0.0814 E-score. For CGTGCCGC, the binding signal is -0.141 E-score. For the sequence TCGTAACA, the binding signal was -0.102 E-score.

Values taken from paper PMC10668032.
